# Measured values: ChEMBL document CHEMBL4888484, “Replenishing the malaria drug discovery pipeline: Screening and hit evaluation of the MMV Hit Generation Library 1 (HGL1) against asexual blood stage Plasmodium falciparum ,using a nano luciferase reporter read-out” (2022)
# Screen size: about 150,000 compounds; about 540 (0.36%) showed an effect of 50% or more. This is one part of the list.
# System: Plasmodium falciparum
# Experiment: Primary screen in NF54 nanoGlo assay, in single point, at 2uM, 72h; a lower Z score goes with more inhibition
# Type: functional, Erythrocyte
# Conditions: timepoint 72 hour
Structure (SMILES),% Inhibition,Z score
C[C@@H]1CN(C(=O)c2ccc(-c3cc(NC4CC4)nc(N)n3)cc2)C[C@H](C)O1,0%,0.07
COc1cccc2c(=O)c3c(cnn3C)[nH]c12,-11%,2.21
C[C@@H](CN(C)c1ncc(C#N)cc1Cl)c1nnn[nH]1,3%,-0.37
COc1ccc(NC(=O)c2n[nH]c3c2CCCC3)cn1,-14%,1.76
O=C(Cc1ccccc1)Nc1c(-c2ccc(C(F)(F)F)cc2)n[nH]c1C1CC1,5%,-0.85
C=CCn1c(Cc2cn3ccccc3n2)nnc1N1CC2CCC1C2 (stereo not given),6%,-0.98
COc1ccc(CNCCC2C(C)CN(C)C(C)C2Cc2ccccc2)cc1 (stereo not given),55%,-7.17
CCS(=O)(=O)N1CCC(C(=O)N(Cc2ccccc2)c2ccccc2)CC1,4%,-0.52
Cc1cc([C@H](C)NCc2nc(C(C)C)cs2)no1,-1%,0.28
O=C1N(CC2CC2)CCC[C@@]1(O)CN1CCC(Cc2ccccc2F)CC1,-15%,1.79
Cc1nccnc1CCNCc1ccc(Cl)s1,-7%,1.3
O=C(Nc1cnc(N2CCCC2)nc1)c1cccc(Br)c1,-30%,2.6
O=C(CCc1conc1-c1cccc(F)c1)NCc1ccco1,-16%,2.14
N#Cc1c(F)cccc1NC[C@H]1CCCO1,-9%,1.39
CCOC(=O)[C@@H]1CCCCN1C(=O)Cc1cccnc1,-5%,0.47
Cc1ccsc1CN1CCc2nc(N3CCC(C)CC3)nc(Oc3ccc(F)cc3F)c2C1,-15%,2.13
COc1ccc(C(=O)N2CCC(Cn3c(C)cnc3C3CCOCC3)CC2)cn1,-3%,0.39
O=C(c1cc2ccccc2s1)N1CC(N2CCCC2)C1,-8%,0.98
COCCCNCCOCCOc1c(C)cccc1C,-3%,0.51
COCCCn1cnnc1CNC(=O)N[C@H](C)c1ccc(F)cc1,-8%,0.85
CCN1CCN(C(C)CNC(=O)C2CCCN2C(=O)c2ccccc2O)CC1 (stereo not given),-2%,0.31
Cc1ccc(C2(CNC(=O)N3CCC[C@](C)(O)C3)CC2)c(C)c1,-19%,3.38
Cc1[nH]c2ccccc2c1C1=CCN(C(=O)CN2CCCC2=O)CC1,-6%,1.14
Cc1cccc2nc(N3CCOC[C@@H](O)C3)sc12,-2%,0.47
OC[C@H]1CN(Cc2ccc3cc(Cl)ccc3n2)C[C@H]1CN1CCCCC1,-11%,1.82
